# From the supplement of paper PMC3334620
# Over roughly 33,000 sequences, “E-score (-0.5 to 0.5)” has its median near -0.01; the highest 2% begin near 0.26. The list shows a part of the results.
# Molecular target: Ste12 (UniProt P13574)
# Assay: PBM E-score (8-mer binding enrichment) (E-score (-0.5 to 0.5)); higher = stronger / more preferred TF binding; most listed sequences are background and not binding sites
# Conditions: protein concentration: 200 nM; construct: GST-DNA-binding domain
# Summary of the method: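 PURExpress in vitro transcription/translation supplied GST-tagged yeast transcription factors, either full-length or DNA-binding domain. Applied at about 100-200 nM to universal all-10-mer Agilent arrays double-stranded by primer extension, the bound protein was detected with fluorescent anti-GST. E-scores, modified Wilcoxon-Mann-Whitney statistics, were given by the Universal PBM Analysis Suite to ungapped eight-base words pooled with their reverse complements after masliner normalisation.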
row,Sequence,PBM E-score
1,GCCCCCGA,-0.0717
2,ACTGTTGG,-0.117
3,AGACGAAT,0.0481
4,CGATGAAG,0.0893
5,AAGCATCG,-0.139
6,ATCTTCCG,-0.0329
7,ACCGATCT,-0.176
8,TAATAGCA,-0.0102
9,ATACAAAT,0.191
10,CAGCGCTG,0.0671
11,CCGTAGGA,-0.152
12,GCCAACGC,-0.0313
13,GATCAATC,-0.106
14,AAACAGGA,0.228
15,AAGACGAA,-0.0707
16,ATCTCTCC,0.0703
17,TAATGCAA,0.108
18,CAAATATG,0.136
19,CTAACCAG,0.0445
20,CCCTTTAG,-0.326
21,CTACTAGA,0.142
22,ATACGAAG,0.0644

row,Sequence,PBM E-score
1,AAATAAAC,0.243
2,CCGACAGC,-0.226
3,CGGGTTGC,0.002
4,ACCGTTTC,0.3
5,CTACCGTA,-0.118
6,AAGTCTGT,-0.0187
7,GACCGCCC,0.0821
8,GTGTGACA,0.0766
9,GGACGGCA,-0.155
10,CGGATCGC,-0.172
11,ATAGTAGC,-0.025
12,AACTTTCT,0.128
13,ATTTCTCC,0.0845
14,AATGCGCC,-0.103
15,CCATTTTA,0.267
16,GGAAGGCA,-0.138
17,CGTGGCCA,-0.193
18,CGACCACG,-0.0397
19,CTGCAGCC,-0.0379
20,GTTGATAA,0.152
21,GGCCTCCA,-0.0929
22,ACGGCTTC,-0.133

row,Sequence,PBM E-score
1,GAGAATGA,0.194
2,AAGGTGCC,-0.0706
3,ATCGCCGC,0.0231
4,GTCCGCGA,0.0338
5,ATCAGGAC,0.00854
6,AGGTTTCG,0.144
7,AGTATGGC,0.069
8,CTGACAAC,0.0242
9,ATCGAGTG,-0.129
10,ACTTGCCG,-0.117
11,GGAGCACC,-0.0364
12,AAGCTGAA,0.00741
13,CCGTGTCG,-0.0889
14,ACAGAGCC,0.00627
15,ATCACGGA,0.104
16,GTCAACTA,0.0752
17,ACAGCGGT,0.0758
18,GGCGTTAA,-0.0554
19,CACGTTAG,-0.0398
20,CTACGTCA,-0.0481
21,ACGAGTCT,-0.155
22,CTGGCAGA,0.00936

row,Sequence,PBM E-score
1,CACCAATC,0.144
2,CAGGCCAA,-0.0659
3,AGAGCGCG,0.00827
4,ATCTCAAC,0.132
5,ACAGGGTG,-0.213
6,CCCTATTA,-0.176
7,AATGACCC,-0.0659
8,ATATTGGG,-0.0271
9,CCAAAGCG,-0.0219
10,CATGTCAA,-0.143
11,AGTTAACT,-0.182
12,GAATCAGC,0.0683
13,TATCATCA,0.144
14,AATACGCG,-0.0113
15,CCCCTATA,0.0567
16,AATGTCGG,0.0113
17,ACTCGATA,-0.0186
18,CATCGAAA,0.196
19,CCTTATCC,-0.153
20,CCCCCTGA,-0.135
21,ACGAGCAA,-0.183
22,ATTATGGC,-0.0645

row,Sequence,PBM E-score
1,CAAAATGA,0.157
2,GTGGTATA,-0.0619
3,AACATAAT,0.286
4,CGATCCCA,0.0224
5,AAGAAACT,0.172
6,ATCTGTTA,0.106
7,AGGGGGCA,-0.104
8,CTATCGTA,0.0407
9,CAATTTTC,0.138
10,AGATCCTC,-0.101
11,ACCATGAG,0.0673
12,ACACCACG,-0.181
13,CAATGAAC,0.0698
14,CAAGCTAC,-0.174
15,AGGGCTTG,-0.24
16,CGGGATAG,-0.09
17,CTACGGAG,-0.199
18,GCCAGACC,-0.167
19,CGTTGGGA,0.0489
20,TGAATAAA,0.185
21,GACAGTAA,0.0704
22,ATGAAGGG,-0.151
